# About 14,000 (4.5%) of roughly 310,000 compounds showed an effect of 50% or more. Effects have a minus sign here. The list shows a part of the results.
# Molecular target: human ether-à-go-go-related gene (hERG) potassium channel (human, UniProt Q12809)
# Test: primary screen, population patch clamp on CHO cells stably expressing hERG
# 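Further: peak tail current of the secondary pulse compared with the same well before compound.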
# Chain of human ether-à-go-go-related gene (hERG) potassium channel (Q12809 whole entry, looked up): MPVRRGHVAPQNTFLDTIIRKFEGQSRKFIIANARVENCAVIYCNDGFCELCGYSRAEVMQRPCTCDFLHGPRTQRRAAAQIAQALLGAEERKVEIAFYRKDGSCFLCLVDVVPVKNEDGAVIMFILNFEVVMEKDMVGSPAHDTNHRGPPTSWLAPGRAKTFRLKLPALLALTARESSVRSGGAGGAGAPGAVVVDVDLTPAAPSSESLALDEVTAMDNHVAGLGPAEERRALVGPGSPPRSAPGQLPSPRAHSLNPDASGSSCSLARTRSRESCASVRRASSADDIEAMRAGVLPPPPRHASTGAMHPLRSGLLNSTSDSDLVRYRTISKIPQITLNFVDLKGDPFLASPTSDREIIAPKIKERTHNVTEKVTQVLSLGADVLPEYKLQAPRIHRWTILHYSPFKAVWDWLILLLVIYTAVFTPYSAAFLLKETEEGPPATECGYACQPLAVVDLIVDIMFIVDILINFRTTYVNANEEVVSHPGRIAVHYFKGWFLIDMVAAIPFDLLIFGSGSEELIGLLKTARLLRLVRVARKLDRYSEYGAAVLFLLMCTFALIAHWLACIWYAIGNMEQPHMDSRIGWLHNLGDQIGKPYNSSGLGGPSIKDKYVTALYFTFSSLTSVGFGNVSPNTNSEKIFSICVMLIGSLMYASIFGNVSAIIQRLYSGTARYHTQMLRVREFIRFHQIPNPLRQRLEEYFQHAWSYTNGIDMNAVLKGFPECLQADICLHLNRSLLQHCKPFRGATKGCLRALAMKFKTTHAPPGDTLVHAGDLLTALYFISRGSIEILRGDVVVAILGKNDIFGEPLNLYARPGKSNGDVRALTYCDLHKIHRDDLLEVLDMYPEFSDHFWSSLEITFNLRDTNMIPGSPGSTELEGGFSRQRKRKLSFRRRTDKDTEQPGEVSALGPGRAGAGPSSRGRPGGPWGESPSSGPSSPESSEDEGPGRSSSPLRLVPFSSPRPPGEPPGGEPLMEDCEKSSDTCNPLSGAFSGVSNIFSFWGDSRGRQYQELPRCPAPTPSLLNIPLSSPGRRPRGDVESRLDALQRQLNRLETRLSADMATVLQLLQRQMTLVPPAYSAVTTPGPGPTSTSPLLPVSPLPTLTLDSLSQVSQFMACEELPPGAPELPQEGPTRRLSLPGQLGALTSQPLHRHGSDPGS
row,Compound,"hERG current change (%, negative = inhibition) at 10uM [%]"
1,Cc1ccc(C(O)P(=O)(Oc2ccccc2)Oc2ccccc2)cc1 (stereo not drawn),5.41
2,CCc1nnc(NS(=O)(=O)c2ccc(NC(=S)NC(=O)c3ccccc3)cc2)s1,15.9
3,CN1CCN(C(=O)CN2C(=O)COc3ccc(S(=O)(=O)N4CCOCC4)cc32)CC1,11.1
4,CCCCn1c(N)c(N(CC(C)C)C(=O)CN2C(=O)c3ccccc3C2=O)c(=O)[nH]c1=O,-7.79
5,Clc1ncc(CN2CCN(c3ccccc3)CC2)s1,-3.49
6,Cc1ccc2[nH]c(=O)c(COC(=O)C3CCCCC3)cc2c1,16.4
7,COc1ccc(NC(=O)C2CC(=O)N(Cc3ccc(C)cc3)C2)cc1S(=O)(=O)N1CCCCC1 (stereo not drawn),-5.3
8,Cc1ccsc1/C=N/n1c(-c2ccccc2)n[nH]c1=S,-9.65
9,CCCCn1c2ccccc2c2nnc(SCC(=O)NC3=NN=C(c4ccccc4)CS3)nc21,6.79
10,Cc1cc(OCC(=O)N(C)c2ccccc2)cc2c1C(=O)CC(C)(C)O2,-6.2
11,O=C(NC1CC2CCC(C1)N2Cc1ccccc1)c1cccc(F)c1 (stereo not drawn),-60.5
12,Cc1ccc(CSCCNC(=O)c2ccccc2)cc1,-13.6
13,O=C(Nc1ccc2c(c1)OCO2)NC1(C(F)(F)F)Oc2ccccc2O1,-8.15
14,O=C(NC1CCN(S(=O)(=O)c2cccc(F)c2)CC1)c1ccc(F)cc1,14.6
15,O=C(Cn1cncn1)NCCCc1ccccc1,10.1
16,CCOc1ccccc1Nc1ccc(C(=O)O)cc1[N+](=O)[O-],7.69
17,O=C(CN(C(=O)CCC(=O)Nc1nccs1)c1ccc(F)cc1)NCc1ccco1,3.88
18,CCOC(=O)Cc1csc(NC(=O)Cc2ccc(Br)cc2)n1,-15.2
19,S=c1[nH]nc(-c2ccc(Cl)cc2)n1-c1ccc2c(c1)OCCO2,19.2

row,Compound,"hERG current change (%, negative = inhibition) at 10uM [%]"
1,COc1ccccc1/C=C1\SC(=S)N(CC(=O)NC2CCS(=O)(=O)C2)C1=O (stereo not drawn),-6.12
2,O=C(/C=C/c1ccc(Br)cc1)NC(=O)c1ccccc1O,31.6
3,CCCCOC(=O)c1ccc(NC(=O)CSc2nnnn2C)cc1,20
4,C=CCOc1nc2c(c(=O)n(C)c(=O)n2C)n1Cc1ccc(Cl)cc1,-15.6
5,Cc1cnc(=O)[nH]c1SCc1ccc(C(F)(F)F)cc1,7.41
6,COC(=O)c1cc(C(=O)OCC(=O)NC2CCS(=O)(=O)C2)cc([N+](=O)[O-])c1 (stereo not drawn),18.9
7,CC(=O)Nc1ccc(NC(=O)C23CC4CC(C2)CC(n2cnc(Br)n2)(C4)C3)cc1,-63.4
8,Cc1cc(C)nc(NS(=O)(=O)c2ccc(N/C=C\C(=O)c3cccs3)cc2)n1,13.6
9,CC(C)C(=O)Nc1ccc2c(c1)nc(CCN1CCN(C)CC1)n2C,-3.19
10,CCn1cc(C2=NC(CC(C)C)CO2)c2ccccc21 (stereo not drawn),-5.43
11,Cc1cccn2cc(CNS(=O)(=O)c3cccc(F)c3)nc12,-22.4
12,CCOC(=O)c1sc2nc(SCC#N)n(CCCN3CCCC3=O)c(=O)c2c1C,-62.9
13,N#Cc1ccc(-c2ccc(F)cc2)nc1SCC(=O)Nc1sc2c(c1C#N)CCC2,4.57
14,O=C(C1CCCN(S(=O)(=O)c2cccc3cccnc23)C1)N1CCN(c2ccccc2F)CC1 (stereo not drawn),-75.5
15,CC12CCC(=O)N1C(C(=O)NCCN1C(=O)S/C(=C\c3ccccc3Cl)C1=O)CS2 (stereo not drawn),-22.6
16,CC(=O)c1c(C)n(C)c2ccc(O)cc12,18.8
17,CC(C)c1ccc(NC(=O)NC2(C(=O)NCc3cccnc3)CCCCC2)cc1,5.45
18,CCCNC(=O)C/C(C)=N/NC(=O)C(=O)Nc1ccccn1,29.4
19,NS(=O)(=O)c1ccc(NNC(=O)c2sccc2Cl)cc1,5.33

row,Compound,"hERG current change (%, negative = inhibition) at 10uM [%]"
1,CCN(CC)C(C)C(=O)NCC1(c2ccccc2)CCOCC1.Cl (stereo not drawn),-6.15
2,O=C1CSC(=S)N1/N=C/c1ccc(O)c(O)c1O,8.9
3,Cc1cc(=O)oc2cc(OCC(=O)NCC3CCCO3)ccc12 (stereo not drawn),-1.81
4,COC(=O)c1ccc2c(c1)NC(=O)C(N1CCCCC1)S2 (stereo not drawn),-19.3
5,O=[N+]([O-])c1ccc(Cl)c(CN2CCSCC2)c1,-5.97
6,COc1cc(/C=C2\C(=O)N(C)C(=S)N2C)ccc1O,8.95
7,Clc1ccc(Cn2nnc(-c3ccc(CN4CCOCC4)cc3)n2)cc1,-21.5
8,CC(C)n1c(SCc2ccccc2F)nc2c1c(=O)n(C)c(=O)n2C,-14.1
9,CN(C)S(=O)(=O)c1ccc(C(=O)Nc2cccc(C(=O)O)c2)cc1,-2.66
10,CCOC(=O)N1CCN(CC(O)COc2ccc(C)c(C)c2)CC1.Cl (stereo not drawn),6.64
11,Cc1ccc(CN2CC(C(=O)Nc3ccncc3)CC2=O)cc1 (stereo not drawn),7.48
12,CCC(C)(C)n1nnnc1C(c1ccc(O)c(OC)c1)N1CCN(c2nc3ccccc3s2)CC1 (stereo not drawn),-41.7
13,CC1CN(C(=O)CS(=O)(=O)Cc2ccc(Cl)cc2)CC(C)O1 (stereo not drawn),30.2
14,CC1(C)Cc2c(C#N)c(NCC3CCCO3)nc(-c3ccco3)c2CO1 (stereo not drawn),-38.7
15,CN(C)C(CNC(=O)c1ccc(C(F)(F)F)cc1)c1ccco1 (stereo not drawn),9.49
16,Cc1cc2c(N=NC(=O)C3CC3c3ccccc3)c(O)[nH]c2cc1Br (stereo not drawn),0.687
17,CCOc1ccc(CCNC(=O)C2CCCN(c3nn4c(=O)cc(C)nc4s3)C2)cc1 (stereo not drawn),-24.2
18,CCc1cccc(C)c1NC(=S)N(CCN(C)C)Cc1cccs1,-8.68
19,Cc1nc(Nc2ccc(S(N)(=O)=O)cc2)sc1-c1ccccc1,12.9
